# Assay results reported in the supplement of paper PMC12217912.
# The list shows a part of the results. Sequences were assembled here from the parent chain. Values near 0.05 are background.
# B1: TEV protease; numbered along this chain (parent)
# chain: MGESLFKGPRDYNPISSSICHLTNESDGHTTSLYGIGFGPFIITNKHLFRRNNGTLVVQSLHGVFKVKDTTTLQQHLVDGRDMIIIRMPKDFPPFPQKLKFREPQREERICLVTTNFQTKSMSSMVSDTSCTFPSGDGIFWKHWIQTKDGQCGSPLVSTRDGFIVGIHSASNFTNTNNYFTSVPKNFMELLTNQEAQQWVSGWRLNADSVLWGGHKVFMVKPEEPFQPVKEATQL
# Variants of: B1
# Test: raw area under fraction-flipped curve 0-4 h after induction (AUC4h, not background-subtracted), DNA-recorder readout of cleavage of the substrate (dimensionless); higher = more cleavage of the substrate by the protease variant
# Settings: temperature: 34 °C; time window: 0-4 h after rhamnose induction
# 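Also: Bxb1 expression induced with 0.2% (w/v) L-rhamnose at OD600 near 0.5, cultures sampled hourly, flipped fraction per protease–substrate barcode pair counted by paired-end Illumina sequencing.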
Variant,area with substrate ENLYFQG,area with substrate ENLYFQI,area with substrate ENLYFQL,area with substrate ENLYFQN,area with substrate ENLYFQP,area with substrate ENLYFQR,area with substrate ENLYFQS,area with substrate ENLYFQT,area with substrate ENLYFQV,area with substrate ENLYFQW
Q197F,0.115,0.0372,0.0824,0.0813,0.0714,0.0578,0.11,0.0783,0.0496,0.066
N206A,0.0971,–,–,–,–,–,0.124,–,–,–
G8E,–,–,–,–,–,–,0.0976,–,–,–
T114C,–,0.0713,–,0.0764,–,0.0679,0.095,0.0483,–,0.0648
T129M,–,–,0.0512,0.0889,–,0.0637,0.0801,–,–,–
T129Y,–,–,0.065,0.0687,–,–,0.095,0.0628,–,0.0676
G136S,–,0.0599,–,0.0793,–,–,0.101,–,–,0.0763
N178W,–,–,–,0.0786,–,–,0.145,–,–,–
F180D,–,–,0.098,0.0487,0.0685,0.0668,0.0512,0.0635,–,0.0452
L211S,–,0.0442,0.0501,–,–,–,0.138,–,0.0831,–
G213N,–,0.0932,0.0555,–,0.0632,–,0.0702,0.0598,0.048,0.0625
K7E,–,0.0508,–,0.0825,0.0668,–,0.0953,–,0.0564,–
Q197N,–,0.082,0.0817,0.062,–,0.0667,0.0842,–,–,–

# Same assay, conditions: temperature: 34 °C; time window: 0-4 h after rhamnose induction
Variant,area with substrate ENLYFQY,area with substrate ENLYFQH,area with substrate ENLYFQK,area with substrate ENLYFQM,area with substrate ENLYFQQ
Q197F,0.0787,–,–,–,–
G8E,–,0.0714,0.0671,–,–
T114C,–,0.0846,–,0.0836,–
T129M,–,0.0718,0.0533,0.056,0.0842
T129Y,–,0.0961,0.0786,0.0894,0.0703
G136S,–,0.0929,0.0567,–,0.0431
N178W,–,0.0871,–,0.108,–
F180D,0.049,0.0568,0.0533,0.0537,–
L211S,0.0595,0.119,–,0.143,–
G213N,–,0.0583,–,0.069,–
K7E,–,–,0.0628,–,–
Q197N,–,–,0.069,–,–
